Measured values reported in paper PMC4336329 (PLoS ONE, 2015).
Among all 310,000 compounds or so, about 14,000 (4.5%) showed an effect of 50% or more. Effects have a minus sign here. The list shows a part of the results. Where a SMILES comes first, the peptide text is derived from it. [ ]: non-standard residue; d: D form. pGlu = O=C1CC[C@@H](C(=O)O)N1; Thz = O=C(O)[C@@H]1CSCN1

Target: human ether-à-go-go-related gene (hERG) potassium channel (human, UniProt Q12809)
Assay: primary screen, population patch clamp on CHO cells stably expressing hERG
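Note: peak tail current of the secondary pulse compared with the same well before compound.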

human ether-à-go-go-related gene (hERG) potassium channel, sequence (Q12809 whole entry, looked up): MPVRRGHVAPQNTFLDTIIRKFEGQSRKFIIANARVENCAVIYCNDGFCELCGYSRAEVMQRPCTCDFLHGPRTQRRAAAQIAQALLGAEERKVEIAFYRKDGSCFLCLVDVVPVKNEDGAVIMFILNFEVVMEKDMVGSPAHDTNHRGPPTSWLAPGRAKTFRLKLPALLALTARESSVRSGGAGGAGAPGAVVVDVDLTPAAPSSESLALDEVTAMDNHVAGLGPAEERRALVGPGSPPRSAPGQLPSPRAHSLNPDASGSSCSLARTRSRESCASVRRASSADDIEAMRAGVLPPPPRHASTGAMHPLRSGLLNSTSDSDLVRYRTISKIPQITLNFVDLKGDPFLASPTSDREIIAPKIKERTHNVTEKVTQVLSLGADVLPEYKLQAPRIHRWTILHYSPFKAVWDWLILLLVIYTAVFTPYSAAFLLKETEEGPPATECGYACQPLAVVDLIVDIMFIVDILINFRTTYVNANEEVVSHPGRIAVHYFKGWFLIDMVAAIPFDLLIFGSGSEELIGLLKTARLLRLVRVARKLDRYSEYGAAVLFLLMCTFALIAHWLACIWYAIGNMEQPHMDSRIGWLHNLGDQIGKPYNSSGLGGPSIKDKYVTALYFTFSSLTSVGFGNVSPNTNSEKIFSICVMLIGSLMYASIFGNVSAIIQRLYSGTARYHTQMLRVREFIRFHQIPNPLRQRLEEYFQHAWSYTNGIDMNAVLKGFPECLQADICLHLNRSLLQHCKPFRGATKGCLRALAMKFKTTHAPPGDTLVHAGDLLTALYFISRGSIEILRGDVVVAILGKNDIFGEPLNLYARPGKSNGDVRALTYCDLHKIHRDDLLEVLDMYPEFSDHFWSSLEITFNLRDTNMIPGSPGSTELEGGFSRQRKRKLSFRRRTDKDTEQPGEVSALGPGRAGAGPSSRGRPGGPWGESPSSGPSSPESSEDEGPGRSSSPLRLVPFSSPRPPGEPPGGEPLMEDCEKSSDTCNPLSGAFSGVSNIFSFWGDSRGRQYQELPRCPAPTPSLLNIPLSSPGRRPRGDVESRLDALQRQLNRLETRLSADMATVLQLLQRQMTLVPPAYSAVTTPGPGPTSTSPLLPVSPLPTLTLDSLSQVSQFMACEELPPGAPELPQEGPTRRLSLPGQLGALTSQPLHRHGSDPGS

SMILES | hERG current change (%, negative = inhibition) at 10uM
CCN(CC)CCOC(=O)c1ccc(NC(=S)NC(=O)/C=C/c2ccco2)cc1 | -0.561%
Cc1cccc(N(CC(O)CON=C2c3ccccc3-c3ccccc32)S(C)(=O)=O)c1 (centres unmarked) | 15.1%
O=C(Nc1ccc(OC(F)F)c(Cl)c1)Nc1ccc2c(c1)OCO2 | 25%
Cc1ccc(C(=O)NC(=S)NCC(=O)c2ccccc2)cc1 | 9.51%
CCN(CC(=O)Nc1c(F)cccc1F)C(=O)C1Cc2ccccc2CN1S(=O)(=O)CC (centres unmarked) | -0.108%
Cc1cccc(S(=O)(=O)N2CCN(Cc3ccc4c(c3)OCO4)CC2)c1 | -35.2%
O=C(COC(=O)Cc1ccc(F)cc1)NC1CCCC1 | 4.84%
Cc1ccccc1N(C(=O)c1cccs1)c1nc2ccccc2s1 | 5.76%
CC(CCc1ccccc1)NC(=O)CSc1nc(N)cc(N)n1 (centres unmarked) | -17.5%
O=c1cc(/N=C/c2coc3cc(Br)ccc3c2=O)[nH]c(=S)[nH]1 | 16.1%
Cc1ccc(CSCC(=O)N2CCCC2)cc1 | 14%
O=C(OCC(=O)N1CCCC1=O)c1nc(Cl)ccc1Cl | 5.78%
Cc1csc(NC(=O)c2nn(C)c(C)c2[N+](=O)[O-])n1 | 11.4%
COc1cc(Nc2nc3ccc(Cl)cc3n3cnnc23)cc(OC)c1OC | 19.4%
CC12CCC(C(=O)Nc3ccc(Br)cn3)(OC1=O)C2(C)C (centres unmarked) | 7.13%
CC(C)n1ncc(N2CCOCC2)c(Cl)c1=O | 12%
CN(CC(=O)Nc1ccccc1C(F)(F)F)Cc1c(O)ccc2ccccc12 | 9.21%
C[C@H](NC(=O)C1CC(=O)N(c2ccc(F)cc2)C1)C(=O)N1CCCCC1 (some centres unmarked) | 8.53%
O=C(NCc1ccccc1)NC(=O)c1ccccc1F | 10.9%
Cn1nc(-c2ccccn2)nc2c(=O)n(C)c(=O)nc1-2 | -3.6%
CCc1nc(Sc2nc(C)cc(C)n2)c2oc3ccccc3c2n1 | -2.59%
COC(=O)COc1ccc(S(=O)(=O)Nc2ccc3c(c2)OCCO3)cc1Cl | 2.19%
C/C(=N\O)c1cc(Cl)ccc1O | -2.28%

SMILES | hERG current change (%, negative = inhibition) at 10uM
CN(C)c1ccc(/C=C(/NC(=O)c2ccccc2)C(=O)N/N=C/c2ccc([N+](=O)[O-])c(O)c2)cc1 | -19%
COc1ccc(C2=C(CN(C)C)C(c3ccccc3)c3ccccc3O2)cc1.Cl (centres unmarked) | 4.6%
O=C(NCCCn1ccnc1)/C(=C\c1ccccc1Cl)NC(=O)c1ccccc1 | -41.2%
O=C(Nn1cnnc1)c1ccc(Cl)cc1 | 17.7%
CCCn1c(N)c(C(=O)CSc2nnc(-c3ccco3)n2Cc2ccccc2)c(=O)[nH]c1=O | 0.236%
COc1ccc(CNC(=O)C2CCCN(S(=O)(=O)c3ccc(F)cc3)C2)cc1 (centres unmarked) | 7.46%
C/C(=N\NC(=O)c1ccccc1F)c1cccc(NC(=O)c2ccc(C)cc2)c1 | 13.1%
O=C(NC1(C(F)(F)F)NC(=O)N(Cc2cccnc2)C1=O)c1ccccc1Cl (centres unmarked) | -1.06%
O=C(COC(=O)c1cccnc1Cl)c1ccc(F)cc1 | 15.5%
COc1ccc(NC2=NCC(C)S2)cc1 (centres unmarked) | 8.03%
COc1cccc(CNc2ccc(N3CCC(C)CC3)cc2)c1OC | 14.7%
COc1ccccc1CCNC(=O)C(=O)c1cn(CC(=O)N2CCOCC2)c2ccccc12 | -2.82%
O=C(Nc1nccs1)c1ccc(-c2ccccc2Cl)o1 | 9.26%
Cc1cccc(C(=O)OCC(=O)NC(=O)Cc2ccccc2)c1O | 13.8%
O=C1CC[C@@H](C(=O)N2CSC[C@H]2C(=O)O)N1 ([pGlu]-[Thz]-OH) | 15.5%
Cc1cc2ncc(-c3cccs3)nc2cc1C | 19.3%
O=C(c1cccs1)N1CCN(c2nnc(-c3ccccc3)c3ccccc23)CC1 | -76.5%
CN=C1SC(CC(=O)Nc2ccc(F)cc2F)C(=O)N1/N=C/c1ccc(OC(F)F)c(OC)c1 (centres unmarked) | 13.2%
COc1cc(/C=N/N2CCCCC2)cc([N+](=O)[O-])c1O | 20.8%
CCN(C(=O)COC(=O)c1cccnc1Nc1cccc(C(F)(F)F)c1)C1CCS(=O)(=O)C1 (centres unmarked) | -51%
Cc1ccc(N(Cc2ccccc2)C(=O)c2ccc(C)c(S(=O)(=O)N3CCOCC3)c2)cc1 | -18%
COc1ccc(CCNC2=NCCS2)cc1 | -2.59%
COc1ccc(C(=O)COC(=O)Cn2[nH]c(=O)c3ccccc3c2=O)c(OC)c1 | 13.3%

SMILES | hERG current change (%, negative = inhibition) at 10uM
CCn1cc(C(=O)NCc2ccco2)c(=O)c2cc(S(=O)(=O)N3CC(C)CC(C)C3)ccc21 (centres unmarked) | -7.3%
COc1ccccc1N1CCN(/N=C/C=C\c2ccco2)CC1 | -2.4%
CCC(=O)NC1(C(F)(F)F)C(=O)Nc2c1c(=O)n(C)c(=O)n2C (centres unmarked) | 7.22%
O=c1c(Cc2ccccc2)c(O)ccn1CCc1cnc[nH]1 | 27.3%
O=C(O)c1cc(-c2ccc3ccccc3c2)nc2ccc(F)cc12 | 34.9%
O=C(CNC(=O)c1ccc(Br)o1)NNC(=O)c1n[nH]c(=O)c2ccccc12 | 8.88%
O=C(c1ccccc1SCc1ccccc1)N1CCCCCC1 | -18.3%
COc1cc2ccccc2cc1C(=O)Nc1ccccc1N1CCN(S(C)(=O)=O)CC1 | 6.35%
CCOC(=O)C1CCCN(Cc2cn[nH]c2-c2ccc(F)cc2F)C1 (centres unmarked) | -2.03%
COC(=O)[C@@H](NC(=O)NC1CCCCC1C)C(C)C (some centres unmarked) | 0.868%
CSc1ccccc1OCc1cc(C(=O)NCc2csc(C(C)C)n2)no1 | -9.57%
CCOC(=O)N1CCN(C(=O)CN(c2ccc(OC)c(OC)c2)S(C)(=O)=O)CC1 | -6.26%
CCOC(=O)CSC1=C(C#N)C(c2sccc2C)C(C(C)=O)=C(C)N1 (centres unmarked) | -1.98%
CCOC(=O)c1cnc(SCC(=O)c2ccc(Cl)cc2)nc1N | 17.9%
Nc1nnc(-c2ccccc2[N+](=O)[O-])o1 | 10.9%
CC(C)c1ccc(/C=C(\NC(=O)c2ccccc2)C(=O)NCCN2CCOCC2)cc1 | -61%
COc1ccccc1N1C(=O)c2ccc(C(=O)Nc3ccc(F)cc3)cc2C1=O | 1.07%
Cn1c(SCC(=O)Nc2ccc(NC(=O)c3ccccc3F)cc2)nnc1-c1ccncc1 | 16.2%
Cc1ccc(CNS(=O)(=O)c2cc3c(cc2C)N(C)CCO3)cc1 | -12.3%
CN1CCN(C(c2ccccc2)c2ccccc2)CC1.Cl | -12.1%
Cc1ccc(CNC(=O)CCn2c(=O)oc3ccccc32)cc1 | 0.00948%
CCOP(=O)(c1ccccc1)C1(C#N)CC1 (centres unmarked) | 9.74%
CCc1c(C#N)c(SCCC(=O)Nc2ccc(F)cc2)nc2c1C(=O)CC(C)(C)C2 | 10.4%

SMILES | hERG current change (%, negative = inhibition) at 10uM
CCC(C)NCC(O)COCc1ccc(Cl)cc1.Cl (centres unmarked) | -9.92%
O=C(NCCNC(=O)c1ccc(F)cc1)c1ccc(F)cc1 | 0.397%
CNc1cc(-n2nc(C)cc2-c2ccccc2)ncn1 | 11%
CC(C)CN(C(=O)c1ccc(=O)n(C)n1)c1c(N)n(Cc2ccccc2)c(=O)[nH]c1=O | 7.23%
Nn1c(SCC(=O)Nc2cccnc2Cl)nnc1-c1ccccc1 | 7.24%
CCC1=C(OC(=O)N(CC)CC)N2C(=O)OC(=NCC(=O)OC)[C@]2(Cc2ccccc2)[C@H]2C1=CC[C@H]1C(=O)NC(=O)[C@H]12 | 9.2%
COCCCNC(=O)COc1cc(C)c(Cl)c(C)c1 | -3.99%
COc1cc(NC(=O)C(C)Oc2ccccc2)c(C(=O)O)cc1OC (centres unmarked) | 16.1%
CC(C)C(=O)Nc1ccnc(-c2cccnc2)n1 | -1.77%
CC1CN(C(=S)Nc2ccc(SC(F)F)cc2)CC(C)O1 (centres unmarked) | -27.6%
COc1ccc(-n2c(SCC(=O)C(C)(C)C)nc3c(sc(=S)n3-c3ccccc3)c2=O)c(OC)c1 | 21.3%
COCC(C)NC(=O)c1cc2cccc([N+](=O)[O-])c2[nH]1 (centres unmarked) | 11.9%
CC(=O)C1C(c2ccco2)c2c(noc2C)CC1(C)O (centres unmarked) | 0.959%
CC1CCC/C(=N\NC(=O)c2ccncc2)C1 (centres unmarked) | 13.3%
COc1cccc(CNS(=O)(=O)c2c(C(=O)N3CCCCCC3)c(C)n(C)c2C)c1 | -8.55%
O=S(=O)(NCCSc1ccc(Cl)cc1)c1ccc2c(c1)OCCO2 | -11.6%
Cn1c(=O)c2c(nc(SCC(=O)O)n2Cc2cccc(C(F)(F)F)c2)n(C)c1=O | -10.2%
O=c1[nH]nc(Cc2ccc(-c3cccc(Cl)c3)o2)c2ccccc12 | 6.41%
O=c1c2[nH]c3ccccc3c2nc2n1CCCS2 | -27%
COc1ccc(CNC(=O)CN2C(=O)NC(C)(c3ccc(Cl)cc3)C2=O)cc1 (centres unmarked) | -8.82%
